Assay results reported in a collection of fitness landscapes (doi:10.1016/j.celrep.2020.107928).
In all, about 81,000 sequences were measured (“one-hybrid fitness for binding parS DNA”: median about -0.17, highest 2% from about 0.51 on). The list shows a part of the results.

B1: Caulobacter ParB omega fusion; a variant is named by its letters at X, in order, B8GW30 (parent)
chain: MESVVVGEPGMSEGRRGLGRGLSALLGEVDAAPAQAPGEQLGGSREAPIEILQRNPDQPRRTFREEDLEDLSNSIREKGVLQPILVRPSPDTAGEYQIVAGERAWRAAQRAGLKTVPIMVRELDDLAVLEIGIIENVQRADLNVLEEALSYKVLMEKFERTQENIAQTIGKSXSHVANXMRLLXLPDEVQSYLVSGELTAXHARAIAAAADPVALAKQIIEGGLSVRETEALARKAPNLSAGKSKGGRPPRVKDTDTQALESDLSSVLGLDVSIDHRGSTGTLTITYATLEQLDDLCNRLTRGI

Variants of: B1
Assay: one-hybrid fitness for binding parS DNA (scaled: cognate 1, non-cognate 0); higher = stronger binding
Details: with parS DNA site
In short: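 Caulobacter ParB libraries with four specificity codons randomised were screened by bacterial one-hybrid selection in the E. coli USO strain, using a HIS3 reporter whose site lies 19 bp from the promoter. Selection ran for 48 hours at 37°C on M9 lacking histidine, with 0.1 mM IPTG and 5 mM 3-AT. Plasmids were Illumina-sequenced before and after selection, three replicate libraries were pooled, and variants with under 10 reads were dropped. Fitness is the log change in each variant's read ratio to wild type, rescaled against the cognate and non-cognate sites.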

one-hybrid fitness for binding parS DNA, 0.97:
RIHS

one-hybrid fitness for binding parS DNA, 0.274:
RCNF

one-hybrid fitness for binding parS DNA, 0.454:
RCAY

one-hybrid fitness for binding parS DNA, 0.319:
RCGM

one-hybrid fitness for binding parS DNA, 0.518:
RFCA

one-hybrid fitness for binding parS DNA, 0.355:
RVKF

one-hybrid fitness for binding parS DNA, ≤ 0.2:
SDQF
PAVT
SDNG
EKIR
THER
NYIS
LPNS
HGVG
QNHF
WMHM
IANA
YVYT
VGSW
YQPY
AYKL
PEMR
MERK
RHFF
WTIR
ENMR
GTYL
YNSA
QEWG
LYTD
QVQT
GPEC
EYDL
NVLV
INWR
QPSL
RDDM
QWGG
KYYG
AHVT
TRAP
MLAY
VMET
LYPH
MTMK
LNVC
MQNL
QYVC
YPET
WAAS
LKDL
SISC
TDVE
SIRK
NDLR
PVMG
AHMC
HGKC
WKSI
PWLY
LTKW
VHSS
NDKR
TDTP
YFAF
HKYW
FLTW
GVVV
HAGE
GVTT
VIDS
NPTV
AVNC
KRIY
SGQN
DLAY
CTTR
EGCK
KTSN
MGQM
QMLS
KIAT
NTTS
PQWR
QKSS
AEAV
NDRR
QCLG
KIEG
PLTN
CHNS
LPEN
YLDF
GLRG
FRTL
WYKC
SSKY
YSSL
SYCN
ADAI
AHKV
ASQC
HFGT
PSNT
AKIS
DFNR
DKRR
PMEI
KATV
QGKR
PVCI
PNTL
RPTE
KKTA
LPAH
CRWC
ASAH
HTAT
KMRS
DHLG
QQKI
ALTC
SSHN
FSHR
GPHG
ETVS
VHKV
QNRC
IGNG
YFVT
QHEF
KSLS
GGCG
DGVN
TYNH
RFIK
AGND
IGAY
KSRF
PVIP
CTSW
RNTK
SGAA
KTRE
MTHF
FCNS
QTNK
SPTD
DYNM
IKTL
RYCP

one-hybrid fitness for binding parS DNA, 0.249:
RVCF

one-hybrid fitness for binding parS DNA, 0.433:
RNPG
